# In PubChem BioAssay AID588342 (National Center for Advancing Translational Sciences (NCATS), 2011):
# Out of some 360,000 compounds screened, about 25,000 (6.9%) were called active. Inconclusive means that the source gave no clear call. Such entries were picked first, then a sample of the others. The call rests on the fitted dose curve; in most records, active means well fitted inhibition curve with a large enough effect; inconclusive means small, poorly fitted or top-dose-only effect; inactive means flat fitted curve, though single readings scatter. Potencies of inconclusive entries are doubtful fits and often do not repeat.
# Molecular target: Luciferin 4-monooxygenase (Photinus pyralis) (UniProt P08659)
# UniProt P08659, sequence (P08659 whole entry, looked up): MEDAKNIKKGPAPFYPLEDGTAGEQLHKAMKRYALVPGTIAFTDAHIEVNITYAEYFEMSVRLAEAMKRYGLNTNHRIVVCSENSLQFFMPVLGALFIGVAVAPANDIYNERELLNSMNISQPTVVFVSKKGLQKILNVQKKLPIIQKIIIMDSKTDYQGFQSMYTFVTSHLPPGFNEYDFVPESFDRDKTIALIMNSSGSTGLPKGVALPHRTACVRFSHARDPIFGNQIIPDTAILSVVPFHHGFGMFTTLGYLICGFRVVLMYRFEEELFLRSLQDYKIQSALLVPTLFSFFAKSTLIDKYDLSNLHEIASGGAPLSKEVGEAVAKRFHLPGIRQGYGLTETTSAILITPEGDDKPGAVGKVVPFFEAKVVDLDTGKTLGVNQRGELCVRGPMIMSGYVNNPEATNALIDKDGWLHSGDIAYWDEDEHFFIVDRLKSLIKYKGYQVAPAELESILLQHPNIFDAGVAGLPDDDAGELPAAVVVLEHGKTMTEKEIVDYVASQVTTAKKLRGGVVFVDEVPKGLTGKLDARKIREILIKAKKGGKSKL
# Test: qHTS profiling assay for firefly luciferase inhibitor/activator using purifed enzyme and Km concentrations of substrates (counterscreen for miR-21 project); further: nearly all actives have a fitted effect of over 55% in size;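 on activity change, negative = inhibition: plate controls were vehicle for no effect and reference inhibitor for full effect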
# Settings: purified FLuc, luminescence inhibition; series mostly up to 57.5 µM; activity change, negative = inhibition: at the top concentration
# Procedure, shortened: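 Purified P. pyralis luciferase, 10 nM final, with Km-level 10 uM D-luciferin and 10 uM ATP in 50 mM Tris acetate pH 7.5, 10 mM Mg acetate, 0.01% Tween-20, 0.05% BSA; 6-point qHTS titration about 60 µM downward; luminescence read.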
# Potency means the concentration at half of the fitted maximal effect; tags describe the fitted curve by direction and shape.
Compound,Potency,"activity change, negative = inhibition"
O=c1c(N2CCN(c3ccc(F)cc3)CC2)csc2ccc(F)cc12,"inconclusive: 37.9 µM [inhibitor, partial curve, poor fit]",
COC(=O)C1=C(O)/C(=C\c2ccc(CNC(=O)C(=O)Nc3ccc(C)c(C)c3)o2)N=C1C,"inconclusive: 5.36 µM [inhibitor, partial curve, poor fit]",
c1ccc(Nc2nc3ccccc3n3cnnc23)cc1,,inactive: 2.06%
CC1CCN(S(=O)(=O)c2ccc3nc(Nc4cccc(F)c4)ccc3c2)CC1,,inactive: -0.0277%
Cc1ccc(SCC(=O)Nc2ccc(N3CCN(C)CC3)c(F)c2)c(C)c1,active: 12 µM,
O=C(Nc1ccc2c(c1)OCCO2)c1cnn2c1NC(=C1CC1)C=C2C(F)F,"inconclusive: 23.9 µM [inhibitor, single point]",
O=C(c1cn(-c2ccccc2)nc1-c1cccs1)N1CCN(c2ccccn2)CC1,active: 3.79 µM,
O=C(O)CSc1c2c(nc3cc(C(=O)Nc4ccc(F)c(Cl)c4)ccc13)CCCC2,,inactive: -5.39%
Cc1ncc([N+](=O)[O-])n1CCOC(=O)c1cc(Cl)cc(Cl)c1N,"inconclusive: 37.9 µM [inhibitor, partial curve, poor fit]",
CC(C)(C)c1ccc(C(=O)NNC(=O)c2ccccc2Br)cc1,"inconclusive: 2.69 µM [inhibitor, full curve]",
O=C(O)c1ccc(N2C(=O)/C(=C/c3ccc(-c4ccc([N+](=O)[O-])cc4)o3)C=C2c2ccccc2)cc1,"inconclusive: 26.9 µM [inhibitor, single point]",
CCC(Sc1nc2nccnc2c(=O)n1Cc1ccc(Cl)cc1)C(=O)NC1CCCCC1 (configuration not stated),,inactive: -0.121%
c1ccc2c(C3=NNC(=NC4CC4)SC3)c[nH]c2c1,active: 1.51 µM,
COc1ccc(-c2cc3nc4ccccc4n3c(N)c2C#N)cc1,"inconclusive: 2.69 µM [inhibitor, full curve]",
CC(C)CCNC(=S)Nc1ccc(Br)cc1,active: 21.3 µM,
Cc1ccc(-c2cnc(C3CC3)o2)cc1S(=O)(=O)Nc1ccc(F)cc1Cl,"inconclusive: 10.7 µM [inhibitor, partial curve, poor fit]",
Cc1[nH]c(=O)[nH]c(=O)c1/C=N/NC(=O)CCCCCNC(=O)OC(C)(C)C,"inconclusive: 23.9 µM [inhibitor, partial curve, poor fit]",
COc1ccc(NC(=O)c2[nH]c(C)c(C(C)=O)c2C)cc1Cl,"inconclusive: 23.9 µM [inhibitor, partial curve]",
CCOC(=O)CSc1nc2c(sc(=S)n2-c2ccc(OCC)cc2)c(=O)[nH]1,"inconclusive: 26.9 µM [inhibitor, partial curve]",
CCOc1ccc(NC(=O)c2cnn3c2NC(C)=C(C(=O)Nc2ccc(Cl)cc2)C3c2ccc(OC)c(OC)c2)cc1 (configuration not stated),,inactive: -0.733%
Cc1cc(C)c2nc(-c3ccccn3)cc(C(=O)n3cccn3)c2c1,"inconclusive: 26.9 µM [inhibitor, single point]",
O=C(Nc1ccc(NC(=O)C2CC2)cn1)c1ccccc1,active: 2.69 µM,
O=c1nc(/C=C/c2ccc(-c3ccc(F)cc3)o2)cc(C(F)(F)F)[nH]1,"inconclusive: 37.9 µM [inhibitor, partial curve, poor fit]",
Cc1nc(S/C(=C/c2ccc(-c3cccc(Cl)c3)o2)C(=O)O)n[nH]1,active: 5.36 µM,

Compound,Potency,"activity change, negative = inhibition"
Cc1ccc(-c2cc(C(=O)N/N=C/c3c[nH]c4ccccc34)[nH]n2)cc1,active: 10.7 µM,
COc1ccccc1-c1nc2cc3ccccc3cc2nc1-c1ccccc1,"inconclusive: 15.1 µM [inhibitor, partial curve]",
CNC(=S)NNC(=O)c1sc2cc(C(F)(F)F)cnc2c1-c1cccnc1,"inconclusive: 15.1 µM [inhibitor, partial curve]",
Oc1c(C(c2ccccc2Cl)N2CCCC2)ccc2cccnc12 (configuration not stated),,inactive: -1.23%
Cc1ccc(C)c(N2CCN(C(=O)CCc3c(C)nn(-c4ccc(N5CCCC5)nn4)c3C)CC2)c1,,inactive: -2.8%
Cc1cc(=O)oc2cc(OCC(=O)Nc3ccccc3C(=O)O)ccc12,"inconclusive: 26.9 µM [inhibitor, single point]",
COCCSc1nnc(NC(=O)C(C)(C)C)s1,active: 15.1 µM,
CC(C)CNC(=S)N1CCC(NC(=O)c2ccco2)CC1,,inactive: -3.92%
Oc1c(C(c2cccc(Br)c2)N2CCCC2)sc2nc(-c3ccco3)nn12 (configuration not stated),"inconclusive: 23.9 µM [inhibitor, partial curve, poor fit]",
O=c1cc(CNc2ccc(Br)cc2)nc2sccn12,"inconclusive: 37.9 µM [inhibitor, partial curve, poor fit]",
O=C(NC(=S)Nc1ccccc1)c1ccc(Br)o1,active: 13.5 µM,
COc1ccc(N2C(=O)C3C4C=CC(C4)C3C2=O)c(OC)c1 (configuration not stated),"inconclusive: 37.9 µM [inhibitor, partial curve, poor fit]",
CCOC(=O)CN1N=C(/C=C/c2ccc(C)cc2)CCC1=O,"inconclusive: 23.9 µM [inhibitor, partial curve, poor fit]",
Cc1ccc2cc(/C=C/C(=O)c3ccco3)c(Cl)nc2c1,"inconclusive: 4.78 µM [inhibitor, full curve, poor fit]",
CCN(CC(=O)NCc1ccc(Cl)cc1)C(=O)COc1ccc(Cl)cc1Br,,inactive: 0.894%
COc1cccc(CN2C(=O)c3ccccc3C2C(=O)NCCc2ccccc2)c1 (configuration not stated),,inactive: -5.02%
CC(=O)C1C(=O)c2c(cccc2[N+](=O)[O-])C1=Nc1ccccc1C (configuration not stated),"inconclusive: 16.9 µM [inhibitor, partial curve]",
COc1cccc(-c2nn(-c3ccccc3)cc2C(=O)OCC(=O)Nc2ncc(Cl)cc2Cl)c1,"inconclusive: 21.3 µM [inhibitor, partial curve, poor fit]",
CCOC(=O)N/N=C(\C)c1ccc(Br)cc1,active: 16.9 µM,
Cc1ccc(CNC(=O)CN2N=C(c3ccc(C)cc3)CCC2=O)cc1,,inactive: -13.6%
CN=c1scc(-c2cc(OC)ccc2OC)n1/N=C/c1c(C)[nH]c2ccccc12,"inconclusive: 13.5 µM [inhibitor, partial curve]",
COc1ccc(Nc2nnc(SCC3CCCCO3)s2)cc1 (configuration not stated),"inconclusive: 26.9 µM [inhibitor, partial curve, poor fit]",
Cc1cc(NC(=O)C23CC4CC(CC(C4)C2)C3)n[nH]1,"inconclusive: 37.9 µM [inhibitor, single point]",
CCN(CC)CCNC(=O)CN1C(=O)CSc2ccc(S(=O)(=O)N3CCOCC3)cc21,,inactive: 4.33%

Compound,Potency,"activity change, negative = inhibition"
O=C(/C=C/c1cccc([N+](=O)[O-])c1)N1CCOCC1,,inactive: 0.458%
COC(=O)c1c(NC(=O)CCCC(=O)O)sc2c1CCCCC2,"inconclusive: 37.9 µM [inhibitor, single point]",
O=C(Nc1ccc2c(c1)CCC2)c1ccccc1,active: 1.07 µM,
CCc1nnc2c(NCc3ccccc3)nc3ccccc3n12,,inactive: -0.897%
Cc1cc(=O)n2[nH]c(COc3ccccc3)nc2n1,"inconclusive: 37.9 µM [inhibitor, single point]",
Cc1onc(-c2c(F)cccc2Cl)c1C(=O)OCC(=O)c1c[nH]c2ccccc12,,inactive: -8.22%
CO/N=C/CC(=O)c1ccc(-c2ccccc2)cc1,"inconclusive: 16.9 µM [inhibitor, partial curve]",
Cc1ccc(-c2nnc(Nc3ccc(F)cc3)c3ccccc23)cc1S(=O)(=O)NC(C)C,"inconclusive: 10.7 µM [inhibitor, partial curve]",
CCOc1ccccc1OCCC(=O)OCC(=O)Nc1c(C)nn(-c2ccccc2)c1C,,inactive: -0.203%
COCCn1c(-c2ccc(-c3ccc([N+](=O)[O-])cc3Br)o2)nc2c1c(=O)[nH]c(=O)n2CC(C)C,,inactive: -5.78%
CCOC(=O)N1CCN(C/C(Cl)=C/c2ccccc2)CC1,"inconclusive: 23.9 µM [inhibitor, partial curve, poor fit]",
Cc1cc(C(=O)Nc2nnc(C3CC3)s2)c(C)s1,active: 13.5 µM,
O=C(O)c1ccccc1Nc1cccc(OCc2ccc3ccccc3n2)c1,"inconclusive: 26.9 µM [inhibitor, single point]",
CC(C)c1ccc(N(C(=O)c2csnn2)C(C(=O)NC(C)(C)C)c2ccncc2)cc1 (configuration not stated),"inconclusive: 21.3 µM [inhibitor, single point]",
Cc1cccc(CSc2ncc(Cl)c(C(=O)Nc3nnc(C)s3)n2)c1,"inconclusive: 15.1 µM [inhibitor, partial curve]",
Cc1cc(C(=O)COC(=O)c2ccncc2)c(C)n1CCc1ccc(F)cc1,"inconclusive: 23.9 µM [inhibitor, single point]",
O=C(CSc1nc2ccccc2[nH]1)Nc1ccc2c(c1)CCC2,"inconclusive: 26.9 µM [inhibitor, partial curve, poor fit]",
COc1ccc(N2Cc3ccccc3C2)cc1Cl,"inconclusive: 21.3 µM [inhibitor, partial curve]",
Cc1ccc2oc(C(=O)NCC(c3ccc(Cl)cc3)N3CCOCC3)c(C)c2c1 (configuration not stated),,inactive: 0.526%
COC(=O)c1ccc(-c2nc3cc(N)ccc3o2)cc1,active: 1.2 µM,
Cc1cc(C)nc(Nc2ccc(N3CCOCC3)cc2)n1,"inconclusive: 21.3 µM [inhibitor, partial curve]",
O=C(NOCc1ccccc1)c1ccc(Cl)cc1Cl,active: 1.35 µM,
CC(C)c1ccc(C(=O)NCc2ccc(Cl)cc2)cc1,"inconclusive: 9.53 µM [inhibitor, partial curve]",
COc1cc(C(N)=O)cc(Cl)c1OCc1ccccc1,,inactive: -3.46%
